Patent publication US7811992B2, “Anti-infarction molecules” (Stasys Technologies, Inc., priority 2002, dated 2010)
Several values for one entry are separate records, joined by “and”; a condition that tells them apart may be missing. Equal entries are not always repeated. Square brackets hold non-standard residues; d marks the D form. Ends that are not written are not given here. Peptide text beside a SMILES is read from it. * marks the point of attachment. Acetyl(1-adamantyl) = O=C(CC12CC3CC(CC(C3)C1)C2)*; Hyp = O=C(O)[C@@H]1C[C@@H](O)CN1; 2Thi = N[C@@H](Cc1cccs1)C(=O)O

Tests used:
[1] = test system: cerebral infarction in mouse MCAO model; details: for animal died: individual animal in MCAO experiment; for infarct area vs saline treated animals, statistical significance: 1-tailed t-test, p value less than 0.05; for % Ischemic Injury: mean of group, mouse MCAO; for ischemia injury %, Mean / total damage area, Mean: group mean; for total damage area, Total: sum over animals
Description: Table 22. Compared with the vehicle-injected group, the infarct area in the brains of the BK variants is show in Table 22. The BK variants shown in Table 22 are presented in their order of activity. SEQ ID NOs: 58, 61, and 77 were significant to less than a 0.05 p value. The p-values were derived by grouping all saline treated animals shown in Table 28 and comparing to experimental animals shown in Table 23 using a 1-tailed t-test. Any p-value found to be less than 0.05 was deemed to be statistically significant.
A number of the Bradykinin variants were tested in the MCAO mouse model as disclosed in the examples herein.
The numbers designating the columns refer to the animals used in a particular experiment for the designated variant. For example, in certain experiments there were 9 parallel animals undergoing occlusion and subsequent FPA variant injection. The infarct area in each section was determined with a computer-assisted image analysis system, consisting of a Power Macintosh computer equipped with a Quick Capture frame grabber card, Hitachi CCD camera mounted on a camera stand. NIH Image Analysis Software, v. 1.55 was used. The images were captured and the total area of infarct was determined over the sections. A single operator blinded to treatment status performed all measurements. Summing the infarct volumes of the sections calculated the total infarct volume. The results are expressed as the mean±standard deviation (SD).

[2] = test system: cerebral infarction in mouse MCAO model; assay: Mouse MCAO model, FPA and C-terminal fragments of FPAw (Example 2), infarct volume by TTC; assay type: in vivo, C57BL/6 mouse; details: for Percent reduction in Infarct volume: 10 mg/kg i.v. at end of 1 h ischemia, 24 h reperfusion
[3] = test system: cerebral infarction in mouse MCAO model; assay: Mouse middle cerebral artery occlusion (MCAO) model, Example 1: 1-hr occlusion, TTC infarction volume and motor behavior at 24 hrs; assay type: in vivo, C57 mouse; details: for % infarction in ipsilateral hemisphere, group mean: IV-injection, 250 μg/mouse of FPA-h or its molar equivalent

## N=C(N)NCCC[C@H](NC(=O)[C@H](Cc1cccs1)NC(=O)[C@@H](Cc1ccccc1)NC(=O)[C@H](CO)NC(=O)[C@H](Cc1cccs1)NC(=O)CNC(=O)[C@@H]1CCCN1C(=O)[C@@H]1CCCN1C(=O)[C@@H](N)CCCNC(=N)N)C(=O)O [VP045] (H-RPPG[2Thi]S[dF][2Thi]R-OH)
[1]
  animal died: died

## N=C(N)NCCC[C@H](NC(=O)[C@H](Cc1cccs1)NC(=O)[C@@H](Cc1ccccc1)NC(=O)[C@H](CO)NC(=O)[C@H](Cc1cccs1)NC(=O)CNC(=O)[C@@H]1C[C@@H](O)CN1C(=O)[C@@H]1CCCN1C(=O)[C@H](CCCNC(=N)N)NC(=O)[C@@H](CCCNC(=N)N)NC(=O)CC12CC3CC(CC(C3)C1)C2)C(=O)O [VP046] ({Acetyl(1-adamantyl)}-[dR]RP[Hyp]G[2Thi]S[dF][2Thi]R-OH)
[1]
  animal died: died

## ADSGE GDFLAEGGGVR (ADSGEGDFLAEGGGVR) [FPA-h, synthesized human Fibrinopeptide-A]
[2]; FPA 0.625 mg/kg
  infarct volume, 25% Percentile: 26.61
  infarct volume, 75% Percentile: 51.40
  infarct volume, Maximum: 65.19
  infarct volume, Mean: 39.91
  infarct volume, Median: 41.92
  infarct volume, Minimum: 14.23
[2]; FPA 2.5 mg/kg
  infarct volume, 25% Percentile: 16.08
  infarct volume, 75% Percentile: 50.02
  infarct volume, Maximum: 58.31
  infarct volume, Mean: 28.26
  infarct volume, Median: 25.56
  infarct volume, Minimum: 5.180
[2]; FPA 10 mg/kg
  infarct volume, 25% Percentile: 8.580
  infarct volume, 75% Percentile: 59.32
  infarct volume, Maximum: 91.58
  infarct volume, Mean: 35.27
  infarct volume, Median: 24.80
  infarct volume, Minimum: 5.220
[3]; 10 μg/kg
  reduction in infarction size: statistically significant reduction in infarction size
[3]; IV dose 15.625 ug/a, % of ipsilateral hemisphere, one animal per row, listed as FPA
  % Infarction Volume: 21.9% and 28.9%
[3]; dose of 10 μg/ml for all test materials
  infarction size, each cell one mouse: 20.76 mm^3 and 53.72 mm^3
[3]; pooled groups (FPA-w I+L; daBK+BK; C-term I+L; FPA-h from previous table)
  % infarction in ipsilateral hemisphere, Combined Groups, mean: 19.4%
[3]; synthesized peptides in the mouse-MCAO model, Tables 10-12
  effective as an anti-infarction molecule: effective

## ADTDK GEFLAEGGGVR (ADTDKGEFLAEGGGVR) [FPA(L)-w, synthesized woodchuck Fibrinopeptide A with L in the 9th position]
[3]
  % infarction in ipsilateral hemisphere, group mean: 48.2%

## Arg-Pro-Pro-Giy-Phe-SeF-Pro-Phe (RPPGFSPF) [Des-Arg^9] Bradykinin]
[3]; 0.005 mg/kg
  anti-infarction effect: worked
[3]; listed as daBK
  % infarction in ipsilateral hemisphere, group mean: 17%
[1]
  infarct area vs saline treated animals, statistical significance: significant

## GEFLAEGGGVR [C-terminal fragment of woodchuck FPA, leucine position 4]
[2]; listed as C-terminal (L) FPAw
  Percent reduction in Infarct volume: 67%
[2]; listed as C-terminus (L) of FPAw
  Percent reduction in Infarct volume: 67%
[2]; 10 mg/kg, group statistics
  infarct volume, Maximum: 39.42 mm^3
  infarct volume, Mean: 21.81 mm^3
  infarct volume, Median: 22.58 mm^3
  infarct volume, Minimum: 2.670 mm^3
[3]
  % infarction in ipsilateral hemisphere, group mean: 21.2%

## Lys-Arg-Pro-Pro-Gly-Phe-Ser-Pro-Leu (KRPPGFSPL) [Lys-(Des-Arg9, Leu8)-Bradykinin]
[1]
  infarct area vs saline treated animals, statistical significance: significant

## RPPGFSP [Bradykinin (1-7)]
[1]
  infarct area vs saline treated animals, statistical significance: significant

## VP044 (RPPGFSPF)
[1]
  % Ischemic Injury: 13.2%

## VP044/010 (RPPGFSPF)
[1]
  ischemia injury %, Mean: 13.2%
  total damage area, Mean: 8.7
  total damage area, Total: 43.5

## VP060 (RPPGFSP)
[1]
  ischemia injury %, Mean: 18.1%
  total damage area, Mean: 13.4
  % Ischemic Injury: 18.1%
  total damage area, Total: 67.1

## VP064 (XRPXGXSXXR; D-residues; non-natural residues)
[1]
  % Ischemic Injury: 34.2%
